In the RNAGym collection of RNA variant scans (doi:10.1093/nar/gkz1192) one finds self-cleavage data, which are given here for 34 variants.

The source gives no read counts; variants with many changes may rest on few reads.

To fix the notation:
B1: CPEB3 Ribozyme (parent)
chain: UAACAGGGGGCCACAGCAGAAGCGUUCACGUCGCAGCCCCUGUCAGAUUCUGGUGAAUCUGCGAAUUCUGCUGUAUAUCUC

The variants in the series derive from B1. Description: self-cleavage, relative activity (ratio to wild type); higher = more cleavage; in vitro, sequencing. In outline:
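Libraries of CPEB3 self-cleaving ribozyme mutants came from rounds of error-prone PCR and carried barcodes, which DNA sequencing matched to variants. In vitro transcription used T7 RNA polymerase at 37°C for 5 hours, with a further 15 min in DNase I before EDTA stopped the reaction; the ribozymes cleaved during both steps. The RNA was reverse transcribed with template switching and sequenced on Illumina. Relative activity is the cleaved/total read fraction of a variant divided by that of the unmutated ribozyme, averaged over three batches with at least 5 reads.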
Turning to UAACAGGGGGCCACUGCAGAAGCGUUCACGUCGCAGCCCCUGGCAGAUUCUGGUGAAUCUGCGAAUUCUGCUGUAUAUCCC [A15U U43G U80C], the self-cleavage was found to be 0.28.

For the variant UAACAGGGGGCCACUGCAGAAGCGUUCACGUCGCAGCCCCCGUCAGAUUCCGGUGAAUCUGCGGAUUCUGCUGUAUAUCUC [A15U U41C U51C A64G], the self-cleavage came to 0.39.

UAACAGGGGGCCACUGCAGAAGCGUUCACGUCGCAGCCCCUGUCAGAUCCUGGUGGAUCUGCGAAUUCUGCUGCAUAUCCC [A15U U49C A56G U74C U80C]: the self-cleavage is 0.71.

UAACAGGGGGCCACUGCAGAAGCGUUCACGUCGCAGCCCCAGUCAGAUUCUGGUGAAUCUGCGAAUUCUGCUGUUUAUCUC [A15U U41A A75U]: the self-cleavage came to 0.24.

On to UAACAGGGGGCCACUGCAGAAGCGUUCACGUCGCAGCCCCUGUCAGACUCUGGUGAAUCCGCGGAUUCCGCUGUAUAUCUC [A15U U48C U60C A64G U69C], for which the self-cleavage is 0.07.

Turning to UAACAGGGGGCCACUGCAGAAGCGUUCACGUCGCAGCCCCUGUCAGAUCCUGGUGAAUCAGCGAAUUCUGCUGUAUUUCCC [A15U U49C U60A A77U U80C], the self-cleavage was determined as 0.1.

As to UAACAGGGGGCCACUGCAGAAGCGUUCACGCCGCAGCCCCCGUCAGAUUCUGGUGAAUCUGCGAAUUCAGCUGUAUAUUUC [A15U U31C U41C U69A C79U], the self-cleavage was 0.16.

As to UAACAGGGGGCCACUGCAGAAGCGUUCACGCCGCAGCCCCUGUCAGUUUCUGGUGAAUCUGCGAAUUCUGCUGUAUGUCUC [A15U U31C A47U A77G], the self-cleavage was 0.16.

Consider UAACAGGGGGCCACUGCAGAAGCGUUCACGCCGCAGCCCCUGUCAGACUCUGGUGAAUCUGCGAAUUCUGCUGUAUAUCUC [A15U U31C U48C], for which the self-cleavage amounted to 0.18.

As to UAACAGGGGGCCACUGCAGAAGCGUUCACGCCGCCGCCCCUGUCAGAUUCUGGUGAAUCUGCGAAUUCUGCUGUGUAUCUC [A15U U31C A35C A75G], the self-cleavage worked out at 0.67.

As for UAACAGGGGGCCACUGCAGAAGCGUUCACGACGCAGCCUCUGUCAGAUUCUGGUGAAUCUGCGAAUUCUGCUGUAUAUCUC [A15U U31A C39U], the self-cleavage was determined as 0.18.

Consider UAACAGGGGGCCACUGCAGAAGCGUUCACGACGCGGCCCCUGCCGGAUUCUGGUGAAUCUGCGAAUUCUGCUGUAUAUCUC [A15U U31A A35G U43C A45G], for which the self-cleavage amounted to 0.9.

UAACAGGGGGCCACUGCAGAAGCGUUCACGUCGCAGCCCCCGUCAGAUUCUGGGGAAUCUGCGAAUUCUGCUGUAUAUCUC [A15U U41C U54G]: the self-cleavage stood at 1.09.

Take UAACAGGGGGCCACUGCAGAAGCGUCCACGUCGCAGCCCCUGUCAGAUUCUGGCGAAUCAGCGAACUCUGCUGUAUAUCUC [A15U U26C U54C U60A U66C]: the self-cleavage was found to be 0.1.

Turning to UAACAGGGGGCCACUGCAGAAGCGUGCACGUCGCAGCCCCUGUCAGAUGCGGGUGAAUCUGCGAAUUCAGCUGCAUAUCUC [A15U U26G U49G U51G U69A U74C], the self-cleavage was determined as 0.08.

As to UAACAGGGGGCCACUGCAGAAGCGUCCACGUCGCAGCCCCUGUCAGAUUCUGGUGAACCUGCGAAUUCUGCUGUAUAUCUC [A15U U26C U58C], the self-cleavage stood at 0.21.

For the variant UAACAGGGGGCCACUGCAGAAGCGUUCACGUCGCAGCCCCAGUCAGAUUCUGGUGAAUCUGCGAAUUUUGCUGUAUAUCUC [A15U U41A C68U], the self-cleavage was found to be 0.26.

With UAACAGGGGGCCACUGCAGAAGCGUUCACGUCGCAGCCCCUGUCAGAUCCUGGUGAAUCAGCGAAUUCUGCUGUAUAUCUC [A15U U49C U60A], the self-cleavage was 0.12.

For the variant UAACAGGGGGCCACUGCAGAAGCGUUCACGUCGCAGCCCCCGUCAGAUUCUCAUGAAUUCGCGAAUUCUGCUGUAUAUCUC [A15U U41C G52C G53A C59U U60C], the self-cleavage is 0.23.

In the case of UAACAGGGGGCCACUGCAGAAGCGUUCACGUCGCAGCCCCUGUCAGAUCCUGGUGUAUCUGCGAAUUCUGCUGUAUAUCUC [A15U U49C A56U], the self-cleavage worked out at 0.16.

Consider UAACAGGGGGCCACUGCAGAAGCGUUCACGCCGCGGCCCCUGCCAGAUUCUGGUGAAACUGCGAAUUCUGCUGUAUAUCUC [A15U U31C A35G U43C U58A], for which the self-cleavage amounted to 0.19.

In the case of UAACAGGGGGCCACUGCAGAAGCGUUCACGCCGCAACCCCUGUCAGAUUCUGGUGAAUCUGCGAAUUCUGCUGUAUAUCUC [A15U U31C G36A], the self-cleavage turned out to be 0.13.

As to UAACAGGGGGCCACUGCAGAAGCGUUCACGACGCAGCCCCUGUCAGACUCUGGUGAAUCCGCGAAUUCCGCUGUAUAUCUC [A15U U31A U48C U60C U69C], the self-cleavage came out at 0.1.

For the variant UAACAGGGGGCCACUGCAGAAGCGUUCACGACGCAGCCCCUGGCAGAUUCUGGUGAAUCUGCGAACUCUGCUGUAUAUCUC [A15U U31A U43G U66C], the self-cleavage turned out to be 0.05.

With UAACAGGGGGCCACUGCAGAAGCGUUCACGUCGCAGCCCCUGUCAGAUCCUGGUGAAUCUGCGGAUUCUGCUGUAUAUCUC [A15U U49C A64G], the self-cleavage is 0.15.

For the variant UAACAGGGGGCCACUGCAGAAGCGUUCACGUCGCAGCCCCUGUCAGAUUCAGGUGAAUCUGCGAAUUCUGCUGUAUAACUC [A15U U51A U78A], the self-cleavage worked out at 0.91.

On to UAACAGGGGGCCACUGCAGAAGCGUUCACGUCGCAGCCCCGGUCAGAUUCUGGUGGAUCUGCGAAUUCUGCUGUAUAUCUC [A15U U41G A56G], for which the self-cleavage was determined as 0.06.

For UAACAGGGGGCCACUGCAGAAGCGUUCACGCCGCAGCCCCCGUCAGAUUCUGGUGAAUCUGCGAAUUCUGCAGUAUAUCUC [A15U U31C U41C U72A], the self-cleavage was 0.73.

As for UAACAGGGGGCCACUGCAGAAGCGUGCACGUCGCAGCCCCUGUCAGAUUCUGGUGAAUCUGCGAAUUCUGCAGUAUAUCUC [A15U U26G U72A], the self-cleavage amounted to 0.33.

As for UAACAGGGGGCCACUGCAGAAGCGUUCACGUCGCAGCCCCAGUCAGAUUCUGGUGAAUCUGCGAAUUCUGCUGUAUUUCUC [A15U U41A A77U], the self-cleavage was 0.13.

As for UAACAGGGGGCCACUGCAGAAGCGUUCACGUCGCAGCCCCUGUCAGACUCUGGUGGAUCUGCGAAUUCUACUGUAUAUCUC [A15U U48C A56G G70A], the self-cleavage was 0.69.

For UAACAGGGGGCCACUGCAGAAGCGUUCACGGCGCUGCCCCUGUCAGUUUCUGGUGAUUCUGCGAAUUCUGCUAUAUAUCUC [A15U U31G A35U A47U A57U G73A], the self-cleavage amounted to 0.19.

Take UAACAGGGGGCCACUGCAGAAGCGUCCACGUCGCAGCCCCUGCCAGAUUCUGGCGAACCUGCGAAUUCUGCUGUUUACCUC [A15U U26C U43C U54C U58C A75U U78C]: the self-cleavage was found to be 0.3.

Consider UAACAGGGGGCCACUGCAGAAGCGUUCACGUCGCAGCCCCUGUCAGACUCUGGUGAAUCUGCGAAUUCUGCUGUAUAUGUC [A15U U48C C79G], for which the self-cleavage was found to be 0.44.
